Experimental data from PubChem BioAssay AID686979 (National Center for Advancing Translational Sciences (NCATS), 2013).
Hit rate of the full screen: of about 420,000 compounds, about 50,000 (12%) were called active. The shares of active, inactive and inconclusive entries below differ from those in the screen. Calls come from the whole dose curve; as a rule, active = well fitted inhibition curve with a large enough effect; inconclusive = small, poorly fitted or top-dose-only effect; inactive = flat fitted curve, though single readings scatter. No potency is given beside an inconclusive call; the fits are too rough.

Test: qHTS for Inhibitors of human tyrosyl-DNA phosphodiesterase 1 (TDP1): qHTS in cells in presence of CPT; note: nearly all actives have a fitted effect of over 55% in size
Details: chicken DT40 Tdp1-/-;hTDP1 cells + 20 nM CPT, ATP luminescence, 48 h; activity change, negative = growth inhibition: at 46.2 µM (top of the series)
Outline: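 Cell growth measured by CellTiter-Glo luminescence after a minimum 48 h, 37 C compound exposure with 20 nM CPT in Tdp1-knockout DT40 cells stably expressing hTDP1, seeded 400/well; qHTS titration format.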
% is set by controls: 0 for no effect and ±100 for the full control effect; potency is the fitted concentration of half-maximal effect; tags give direction and shape of the fitted curve.

SMILES	Potency	activity change, negative = growth inhibition
CN(CCc1ccccn1)C(=O)CCC1CCCN(C(=O)c2n[nH]c3c2CCCC3)C1 (stereo not drawn)	inconclusive [inhibitor, single point]	–
CCC12CCCN3CCC4(C(=C(C(=O)OC)C1)Nc1ccccc14)C32 (stereo not drawn)	active: 16.4 µM	–
COc1ccccc1-n1c(SCC(=O)Nc2cccc(C(=O)O)c2)nnc1-c1ccccc1O	inactive	–
Cc1ccc(-c2nc(CCNC(=O)c3ccc(C)c(C)c3)cs2)cc1	inconclusive [inhibitor, single point]	–
CN1CCN(C(=O)c2ccc3c(=O)n(CCc4ccccc4)c(=S)[nH]c3c2)CC1	inconclusive [inhibitor, partial curve]	–
CCn1cc(C(=O)NCC(C)C)c(=O)c2cc(F)c(N3CCN(C(=O)c4ccco4)CC3)cc21	inconclusive [inhibitor, single point]	–
CSc1nc2sc3c(c2c(=S)[nH]1)CC(C)(C)OC3	inactive	–
Cc1ccc(S(=O)(=O)N2CC(O)C[C@H]2C(=O)OCC(=O)Nc2ccc(N3CCCCC3)cc2)cc1C (stereo partly drawn)	inconclusive [inhibitor, single point]	–
Cc1ccc(N(CC(=O)NC2CCCCC2)C(=O)CCCC(=O)Nc2ccccn2)c(C)c1	inactive	–
CC(=O)N1c2ccccc2C(=O)C1N1CCN(c2ccccc2F)CC1 (stereo not drawn)	inconclusive [inhibitor, single point]	–
CC1(C)CC(C(=O)NCCC(c2ccccc2)c2ccco2)CCO1 (stereo not drawn)	inconclusive [inhibitor, single point]	–
O=C(CSc1nnc(-c2ccccc2F)o1)NC(=O)Cc1ccccc1	inactive	–
Cc1ccc(N=Cc2c(C)[nH]n(-c3nc4ccccc4[nH]3)c2=O)cc1	active: 3.26 µM	–
CC(=O)NCCC(=O)Nc1ncc(S(=O)(=O)c2ccc([N+](=O)[O-])cc2)s1	inactive	–
CCC(C(=O)Nc1cccc(Cl)c1C)n1nc(C)c2sc3ccccc3c2c1=O (stereo not drawn)	inconclusive [inhibitor, single point]	–
COc1ccc(N2CCN(C(=O)c3cc(-c4cccs4)nc4ccccc34)CC2)cc1	inconclusive [inhibitor, single point]	–
CCCCn1cc(S(=O)(=O)c2ccc(C)cc2)c(=O)c2cc(F)c(N3CCCCC3)cc21	active: 18.4 µM	–
CCCCCC(=O)NNC(=S)NC(=O)c1ccccc1[N+](=O)[O-]	inconclusive [inhibitor, single point]	–
COc1ccccc1NC(=O)Cn1c(O)c(N=NC(=O)c2ccccc2O)c2ccccc21	active: 0.92 µM	–
COc1ccccc1-c1nc2n(n1)C(c1ccccc1Cl)C(C(=O)Nc1cccnc1)=C(C)N2 (stereo not drawn)	inconclusive [inhibitor, single point]	–
CC(C)(C)OC(=O)N1CCC(c2c(C(=O)NCc3ccccc3)cnn2-c2cccc(F)c2)CC1	inconclusive [inhibitor, single point]	–
CCc1nc2ccc(C)cc2c(C(=O)Oc2cccc3cccnc23)c1C	inconclusive [inhibitor, single point]	–

SMILES	Potency	activity change, negative = growth inhibition
COc1ccc(-n2c(SCC(=O)NNC(=O)c3ccccc3C)nnc2-c2ccncc2)cc1	inconclusive [inhibitor, single point]	–
COC(=O)CCSc1cc(NCCCOC(C)=O)c([N+](=O)[O-])c2nonc12	active: 5.01 µM	–
Cc1ccc(NC(=S)N(CCN(C)C)C(C)c2ccco2)cc1C (stereo not drawn)	active: 18.4 µM	–
O=C(COc1ccccc1C(=O)Nc1cccc(F)c1)Nc1ccc(Br)cc1	inconclusive [inhibitor, single point]	–
CCOC(=O)C1=C(N)Oc2cc(C)n(CCc3ccc(OC)c(OC)c3)c(=O)c2C1c1cccnc1 (stereo not drawn)	inconclusive [inhibitor, single point]	–
Cc1oc(-c2ccc(Cl)cc2)nc1CN1CCCC(C(=O)NCCc2ccc(Cl)cc2)C1 (stereo not drawn)	active: 7.31 µM	–
NS(=O)(=O)c1ccc(NS(=O)(=O)c2ccc(C3CNC(=O)C3)cc2)cc1 (stereo not drawn)	inactive	–
COCCCNC(=O)C1CCN(Cc2cc3ccccc3n2Cc2ccccc2C)CC1	inconclusive [inhibitor, single point]	–
O=C(Oc1cccc2cccnc12)c1cccc(-n2cnnn2)c1	inconclusive [inhibitor, single point]	–
Cn1c(=O)n(C)c2cc(/C=N/NC(=O)c3ccc(Cl)cc3)ccc21	inconclusive [inhibitor, single point]	–
CSc1ccc(CN(C)C(C)C(=O)NCC2CCCCC2)cc1 (stereo not drawn)	inconclusive [inhibitor, single point]	–
CC(CCc1ccccc1)NC(=O)c1ccc(NC(=O)c2ccccc2)cc1 (stereo not drawn)	active: 14.6 µM	–
COC(=O)C1=NNC2(c3ccc(Cl)cc3)C(=O)N(c3ccc(Cl)cc3)C(=O)C12 (stereo not drawn)	inactive	–
CCN(CC)C(=O)Oc1nnc(SC(C)C)n1-c1ccc(Cl)cc1	inconclusive [inhibitor, partial curve, poor fit]	–
CCc1ccc(NC(=O)c2noc(C(C)C)c2[N+](=O)[O-])cc1	inconclusive [inhibitor, single point]	–
O=C(/C=C/c1ccc2c(c1)OCO2)c1ccc(O)cc1O	–	inconclusive: -37.8% [inhibitor]
CCSc1nn(CC(=O)Nc2cccc(CC)c2)c(N)c1S(=O)(=O)c1ccccc1	inconclusive [inhibitor, single point]	–
N=c1c2c(n(Cc3ccccc3)c3c1CCC3)CCC2	active: 1.64 µM	–
COc1cc2nc(C3CC3)n(NC(=O)c3ccc(Cl)cc3)c(=O)c2cc1OC	inconclusive [inhibitor, single point]	–
CCCCC1=CC2=CC(=O)C(C)(OC(=O)CC)C(=O)C2=CN1C(CO)CO (stereo not drawn)	inactive	–
CC(C)c1onc(C(=O)Nc2ccc3c(c2)OCO3)c1[N+](=O)[O-]	inconclusive [inhibitor, single point]	–
